{
  "source": "the supplement of paper PMC7826260",
  "note": "The other results are listed elsewhere or left out. One pool of 16,384 single-stranded DNAs met each Rep nickase domain in vitro (3 µM enzyme, 1 h, 37 °C); shown is the middle of each 90-letter strand. Values are log2 of uncut reads against the no-enzyme pool; the lower, the more was cut; hits are not called. Reads are scaled to the total; where an enzyme cuts many sequences, the uncut ones exceed 0.",
  "data": [
    {"system": "T1, Rep nickase domain of tomato yellow leaf curl virus", "T1 sequence (Rep 1-136, printed without the tag)": "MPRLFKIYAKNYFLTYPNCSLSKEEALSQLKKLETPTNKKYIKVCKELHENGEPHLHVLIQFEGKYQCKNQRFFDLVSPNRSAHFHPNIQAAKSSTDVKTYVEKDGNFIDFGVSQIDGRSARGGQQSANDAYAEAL", "assay": "uncleaved DNA left, log2 of reads against the no-enzyme library (log2 ratio); higher = less cleavage (more negative = more Rep cleavage of the k-mer); sequences stand for … in CTCGTCCG…ACCGGAGA", "protocol": "(§1)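 A pool of 90-nt single-stranded DNAs with seven random bases just before the constant AC of the nick site (name = the seven bases) was cut by 3 µM recombinant His6-SUMO-tagged Rep nickase domain (300 nM DNA, 50 mM HEPES pH 8.0, 50 mM NaCl, 1 mM MnCl2, 1 h, 37 °C, three replicates). Uncut DNA was amplified and sequenced.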", "values": [
      {"sequence": "GTCAGTA", "uncleaved DNA left (log2)": 0.0784},
      {"sequence": "CAAATTT", "uncleaved DNA left (log2)": -0.0505},
      {"sequence": "CTCTTGA", "uncleaved DNA left (log2)": 0.0193},
      {"sequence": "ATTAATC", "uncleaved DNA left (log2)": 0.0707},
      {"sequence": "ATTTATC", "uncleaved DNA left (log2)": 0.128},
      {"sequence": "ACTGTTA", "uncleaved DNA left (log2)": -0.144},
      {"sequence": "CGGAGGC", "uncleaved DNA left (log2)": -0.0512},
      {"sequence": "GACCTGC", "uncleaved DNA left (log2)": 0.0316},
      {"sequence": "TCAAGCT", "uncleaved DNA left (log2)": -0.0893},
      {"sequence": "TGGCTGG", "uncleaved DNA left (log2)": -0.0418},
      {"sequence": "TTCACCC", "uncleaved DNA left (log2)": 0.027},
      {"sequence": "TACGCCC", "uncleaved DNA left (log2)": -0.127},
      {"sequence": "TTTAGGA", "uncleaved DNA left (log2)": 0.0444},
      {"sequence": "GATCTTT", "uncleaved DNA left (log2)": -0.0211},
      {"sequence": "CCAACCA", "uncleaved DNA left (log2)": 0.127},
      {"sequence": "TTACTCT", "uncleaved DNA left (log2)": -0.00954},
      {"sequence": "TATAAGG", "uncleaved DNA left (log2)": -0.0313},
      {"sequence": "ATTGTCT", "uncleaved DNA left (log2)": -0.106},
      {"sequence": "TCAGACC", "uncleaved DNA left (log2)": -0.0315},
      {"sequence": "TGCCCTC", "uncleaved DNA left (log2)": -0.0249},
      {"sequence": "ACGCATA", "uncleaved DNA left (log2)": -0.109},
      {"sequence": "AATAAGG", "uncleaved DNA left (log2)": -0.00347},
      {"sequence": "TTCGATT", "uncleaved DNA left (log2)": 0.0358},
      {"sequence": "GGACGGC", "uncleaved DNA left (log2)": -0.113},
      {"sequence": "CCCTTGA", "uncleaved DNA left (log2)": 0.0563},
      {"sequence": "TACGTGG", "uncleaved DNA left (log2)": 0.0117},
      {"sequence": "TATCCAG", "uncleaved DNA left (log2)": 0.0986},
      {"sequence": "GTGCGAT", "uncleaved DNA left (log2)": 0.0235},
      {"sequence": "CGTATTG", "uncleaved DNA left (log2)": -0.0987},
      {"sequence": "TGCGTAA", "uncleaved DNA left (log2)": 0.0356},
      {"sequence": "TTTGCCT", "uncleaved DNA left (log2)": -0.0118},
      {"sequence": "ATCGGAA", "uncleaved DNA left (log2)": -0.0391},
      {"sequence": "CCGTGTC", "uncleaved DNA left (log2)": -0.136},
      {"sequence": "GTTCCAG", "uncleaved DNA left (log2)": 0.129},
      {"sequence": "CACGGAC", "uncleaved DNA left (log2)": 0.141},
      {"sequence": "CGCACAG", "uncleaved DNA left (log2)": -0.00118},
      {"sequence": "TTGAGCC", "uncleaved DNA left (log2)": -0.0246},
      {"sequence": "GACAGGG", "uncleaved DNA left (log2)": 0.176},
      {"sequence": "TTACTCA", "uncleaved DNA left (log2)": 0.103},
      {"sequence": "CTTCTGC", "uncleaved DNA left (log2)": 0.144}
    ]},
    {"system": "T2, Rep nickase domain of wheat dwarf virus", "T2 sequence (Rep 1-137, printed without the tag)": "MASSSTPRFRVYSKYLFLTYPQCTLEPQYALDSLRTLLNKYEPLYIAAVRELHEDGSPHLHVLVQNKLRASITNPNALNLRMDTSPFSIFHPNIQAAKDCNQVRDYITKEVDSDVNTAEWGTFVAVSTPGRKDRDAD", "assay": "uncleaved DNA left, log2 of reads against the no-enzyme library (log2 ratio); higher = less cleavage (more negative = more Rep cleavage of the k-mer); sequences stand for … in CTCGTCCG…ACCGGAGA", "protocol": "as §1", "values": [
      {"sequence": "GTCAGTA", "uncleaved DNA left (log2)": 0.125},
      {"sequence": "CAAATTT", "uncleaved DNA left (log2)": -3.63},
      {"sequence": "CTCTTGA", "uncleaved DNA left (log2)": -0.0284},
      {"sequence": "ATTAATC", "uncleaved DNA left (log2)": 0.101},
      {"sequence": "ATTTATC", "uncleaved DNA left (log2)": 0.24},
      {"sequence": "ACTGTTA", "uncleaved DNA left (log2)": -0.132},
      {"sequence": "CGGAGGC", "uncleaved DNA left (log2)": 0.0137},
      {"sequence": "GACCTGC", "uncleaved DNA left (log2)": -0.144},
      {"sequence": "TCAAGCT", "uncleaved DNA left (log2)": 0.0397},
      {"sequence": "TGGCTGG", "uncleaved DNA left (log2)": -0.0512},
      {"sequence": "TTCACCC", "uncleaved DNA left (log2)": -0.0205},
      {"sequence": "TACGCCC", "uncleaved DNA left (log2)": -0.128},
      {"sequence": "TTTAGGA", "uncleaved DNA left (log2)": 0.016},
      {"sequence": "GATCTTT", "uncleaved DNA left (log2)": 0.0841},
      {"sequence": "CCAACCA", "uncleaved DNA left (log2)": 0.0641},
      {"sequence": "TTACTCT", "uncleaved DNA left (log2)": -0.146},
      {"sequence": "TATAAGG", "uncleaved DNA left (log2)": 0.044},
      {"sequence": "ATTGTCT", "uncleaved DNA left (log2)": -0.0752},
      {"sequence": "TCAGACC", "uncleaved DNA left (log2)": 0.037},
      {"sequence": "TGCCCTC", "uncleaved DNA left (log2)": 0.0196},
      {"sequence": "ACGCATA", "uncleaved DNA left (log2)": -0.0327},
      {"sequence": "AATAAGG", "uncleaved DNA left (log2)": 0.107},
      {"sequence": "TTCGATT", "uncleaved DNA left (log2)": 0.00552},
      {"sequence": "GGACGGC", "uncleaved DNA left (log2)": 0.0634},
      {"sequence": "CCCTTGA", "uncleaved DNA left (log2)": -0.0299},
      {"sequence": "TACGTGG", "uncleaved DNA left (log2)": -0.0449},
      {"sequence": "TATCCAG", "uncleaved DNA left (log2)": -0.00978},
      {"sequence": "GTGCGAT", "uncleaved DNA left (log2)": -0.0102},
      {"sequence": "CGTATTG", "uncleaved DNA left (log2)": -0.0628},
      {"sequence": "TGCGTAA", "uncleaved DNA left (log2)": -0.044},
      {"sequence": "TTTGCCT", "uncleaved DNA left (log2)": -0.103},
      {"sequence": "ATCGGAA", "uncleaved DNA left (log2)": 0.106},
      {"sequence": "CCGTGTC", "uncleaved DNA left (log2)": -0.243},
      {"sequence": "GTTCCAG", "uncleaved DNA left (log2)": 0.042},
      {"sequence": "CACGGAC", "uncleaved DNA left (log2)": 0.156},
      {"sequence": "CGCACAG", "uncleaved DNA left (log2)": -0.0274},
      {"sequence": "TTGAGCC", "uncleaved DNA left (log2)": -0.0836},
      {"sequence": "GACAGGG", "uncleaved DNA left (log2)": 0.0471},
      {"sequence": "TTACTCA", "uncleaved DNA left (log2)": 0.0963},
      {"sequence": "CTTCTGC", "uncleaved DNA left (log2)": 0.0713}
    ]}
  ]
}
